Measurements taken from a compilation of properties of binary mixtures (doi:10.1021/acs.jced.1c00924).
Some of these densities may be calculated back from excess volumes.

Assay: xn = mol fraction of the nth substance listed
Conditions: 100 kPa

CCO + CCOP(=O)([O-])OCC.CC[n+]1ccn(C)c1
x2 = 0
Conditions | mass density [kg/m3]
293.15 K | 790
298.15 K | 785
303.15 K | 781
308.15 K | 777
313.15 K | 772
323.15 K | 763
328.15 K | 759
333.15 K | 754
338.15 K | 749

CCOP(=O)([O-])OCC.CC[n+]1ccn(C)c1 + CCO
mass density [kg/m3]
Conditions | 293.15 K | 298.15 K | 303.15 K | 308.15 K | 313.15 K | 318.15 K | 323.15 K | 328.15 K | 333.15 K | 338.15 K
x1 = 0.0201 | 819 | – | – | – | – | 798 | – | 790 | 785 | 781
x1 = 0.0397 | 845 | 841 | 837 | 833 | 829 | – | 820 | 816 | – | 807
x1 = 0.0802 | 889 | 885 | 881 | 877 | 873 | 869 | – | 861 | 857 | –
x1 = 0.1002 | 907 | 903 | 899 | 895 | 891 | 887 | 883 | – | 875 | 871
x1 = 0.12 | 923 | 919 | 916 | 912 | 908 | 904 | 900 | 896 | 892 | –
x1 = 0.16 | 952 | 948 | 944 | 940 | 937 | – | 929 | 925 | 921 | 917
x1 = 0.1992 | 975 | 971 | 968 | 964 | 960 | 956 | 953 | – | 945 | 941
x1 = 0.2987 | 1021 | 1017 | 1014 | 1010 | 1007 | 1003 | 999 | 996 | 992 | 988
x1 = 0.4007 | 1055 | – | – | 1044 | 1040 | 1037 | 1033 | 1030 | – | 1023
x1 = 0.5007 | 1080 | 1076 | 1073 | 1069 | 1066 | 1062 | 1059 | 1055 | 1052 | 1048
x1 = 0.5993 | 1099 | 1096 | 1092 | 1089 | 1085 | 1082 | 1078 | – | 1071 | 1068
x1 = 0.7003 | – | – | 1108 | – | 1101 | 1098 | – | 1091 | 1088 | –
x1 = 0.8 | 1128 | 1125 | – | 1118 | 1114 | 1111 | 1107 | 1104 | 1101 | 1097
x1 = 0.8985 | – | 1135 | – | 1129 | 1125 | – | 1118 | 1115 | 1112 | 1108
x1 = 1 | – | 1145 | 1141 | 1138 | – | 1131 | 1128 | 1124 | 1121 | 1117
